Tested on: HCV IRES-driven translation
Method: Both HepGmono-4 and pLuc cells are treated with the compounds as described above, following treatment with the test compounds for 20 hours, cells are collected and lysed in Laminin buffer containing 0.5% SDS. Proteins are separated on a 10% SDS-PAGE, then transferred onto a nitrocellulose membrane, and blotted using antibodies against Fluc (RDI) and β-actin (Oncogene).

COc1ccc(C[C@H](N)C(=O)N[C@H]2[C@@H](O)[C@H](n3cnc4c(N(C)C)ncnc43)O[C@@H]2CO)cc1 [puromycin]
luciferase reporter protein level (HCV IRES-driven), Western blot: inhibited

From patent US8013006B2
